Laboratory results as given in PubChem BioAssay AID485364 (National Center for Advancing Translational Sciences (NCATS), 2010).
Among all 360,000 compounds or so, about 11,000 (3.1%) were called active. The inconclusive results got no clear call from the source; some entries with a clear call stand among them for comparison. The call rests on the fitted dose curve; in most records, active means well fitted inhibition curve with a large enough effect; inconclusive means small, poorly fitted or top-dose-only effect; inactive means no such curve, though single readings can be large or run the other way. Potencies of inconclusive entries are left out as doubtful fits.

Biological target: Schistosoma mansoni thioredoxin glutathione reductase (TGR) (UniProt Q962Y6)
Test: qHTS Assay for the Inhibitors of Schistosoma Mansoni Peroxiredoxins; further: nearly all actives have a fitted effect of over 60% in size
Conditions: purified TGR, DTNB reduction, TNB absorbance 405 nm; activity change, negative = inhibition: at 114 µM (top of the series) unless noted
Outline: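 Kinetic colorimetric format: TGR-catalysed, NADPH-driven DTNB reduction monitored via TNB absorbance. Enzyme dispensed at 20 nM; compound exposure 15 min at room temperature before reaction start.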
On the % scale 0 is the no-effect control and ±100 the full control effect; potency means the concentration at half of the fitted maximal effect; tags describe the fitted curve by direction and shape.

| SMILES | Potency | activity change, negative = inhibition |
| --- | --- | --- |
| CCn1c(CN2CCN(C(c3ccccc3)c3ccccc3)CC2)nc2c1c(=O)n(C)c(=O)n2C | inconclusive [inhibitor, partial curve] |  |
| Cc1nc2ccccn2c1-c1ccnc(=S)[nH]1 | inconclusive [inhibitor, partial curve] |  |
| CCC(NC(=O)Nc1ccc(O)cc1)(C(F)(F)F)C(F)(F)F |  | inactive: -24.2% |
| COc1ccc(NC(=S)Nc2cccnc2)c(OC)c1 | inconclusive [inhibitor, partial curve] |  |
| Nc1cc(=O)[nH]c(SCC(=O)N2CCC(Cc3ccccc3)CC2)n1 |  | inactive: 0.443% |
| Cc1nnc(NC(=O)c2cc(-c3ccco3)nc3ccccc23)s1 | active: 7.94 µM |  |
| CCC(=O)NC(c1cccs1)c1cc(Cl)c2ccccc2c1O (centres undefined) | inconclusive [inhibitor, partial curve] |  |
| O=C1C2=C(C(=O)c3ccccc31)C1O[C@](c3ccsc3)(Cc3c1ccc1ccccc31)O2 | inconclusive [inhibitor, single point] |  |
| CC1=C(C(=O)Nc2ccc(F)cc2)C(c2ccc(C)o2)C2=C(CC(C)(C)CC2=O)N1 (centres undefined) | inconclusive [inhibitor, partial curve] |  |
| N#C/C(=C\c1c(N2CCCCCC2)nc2ccccn2c1=O)C(N)=O |  | inactive: 2.93% |
| COc1ccc(N/C(=C(/C(Cl)=C(Cl)Cl)[N+](=O)[O-])n2nnc3ccccc32)cc1 | inconclusive [inhibitor, full curve] |  |
| Cc1nn(C(C)C(=O)N2CCc3ccccc32)c(C)c1[N+](=O)[O-] (centres undefined) |  | inactive: -12.2% |
| COc1ccccc1CCNC(=O)C(=O)NCC(c1ccco1)S(=O)(=O)c1ccc(F)cc1 (centres undefined) | active: 17.8 µM |  |
| COc1cc(C(=O)/C=C/c2cccnc2)ccc1O | inconclusive [inhibitor, partial curve] |  |
| c1cn(CCCNc2ncnc3sc4c(c23)CCC4)cn1 | inconclusive [inhibitor, partial curve] |  |
| Cc1ccc(-c2nc3c(c(SCC(=O)N(C)c4ccccc4)n2)Cc2c(CO)cnc(C)c2O3)cc1 | inconclusive [inhibitor, partial curve] |  |
| CCOc1ccc(N(CC(=O)NC2CCCC2)C(=O)CSc2nnc(COc3ccccc3)o2)cc1 |  | inactive: 17.6% |
| Cc1ccc(CN2CCNC(=O)C2CC(=O)N(Cc2c(C)nn(C)c2C)C2CC2)o1 (centres undefined) | active: 31.6 µM |  |
| O=Cc1ccc(OCC(=O)Nc2ccccc2-c2ccccc2)cc1 | inconclusive [inhibitor, single point] |  |
| Cc1nc2sc(C(c3ccco3)N3CCOCC3)c(O)n2n1 (centres undefined) | inconclusive [inhibitor, partial curve] |  |
| Clc1ccc(-c2cc(CN3CCCCC3)no2)cc1Cl |  | inactive: 6.09% |
| C=CCn1c(O)c(/C=C2/C=c3ccccc3=N2)c(=O)[nH]c1=S | inconclusive [inhibitor, partial curve] |  |
| O=C1C=C(Nc2ccc(O)cc2)C(=O)c2ccccc21 | inconclusive [inhibitor, partial curve] |  |
| COC(=O)c1cn(NC(=O)c2cc(OC)c(OC)c(OC)c2)c(=O)c2ccccc12 |  | inactive: 7.21% |
| CN1CCNC(=O)C1CC(=O)NCC1(c2ccccc2)CCCCC1 (centres undefined) | inconclusive [inhibitor, partial curve] |  |

| SMILES | Potency | activity change, negative = inhibition |
| --- | --- | --- |
| Oc1ccc(NCc2cccc(OCc3ccc(F)cc3)c2)cc1 | active: 28.2 µM |  |
| CC(=O)Nc1ccc(NC(=O)CS(=O)(=O)c2cn(CC(=O)N3CCCC3)c3ccccc23)cc1 | inconclusive [inhibitor, single point] |  |
| Cc1ccc(C(=O)NC(=S)Nc2cccnc2Cl)cc1 | active: 15.8 µM |  |
| COc1ccccc1CN(Cc1cc2cc(C)ccc2[nH]c1=O)Cc1nnnn1Cc1ccco1 | active: 39.8 µM |  |
| Cn1c(NC(=O)/C=C\c2ccccc2)cc(=O)n(C)c1=O |  | inactive: -0.336% |
| CSc1ccccc1NC(=O)CN(C)C(=O)CCc1c[nH]c2ccccc12 |  | inactive: 13% |
| COc1cc(C(=S)N2CCOCC2)ccc1OC(=O)c1ccccc1 | inconclusive [inhibitor, full curve, poor fit] |  |
| O=C(/C=C/c1ccc2c(c1)OCO2)c1c(O)n(CCC2=CCCCC2)c(=O)[nH]c1=O | inconclusive [inhibitor, partial curve] |  |
| COc1ccc(CNC(=O)CS(=O)Cc2nc(-c3ccc(OC)c(OC)c3)oc2C)cc1 (centres undefined) | active: 25.1 µM |  |
| CC(C)(C)c1nnc2sc(SCC(=O)c3ccccc3)nn2c1=O | inconclusive [inhibitor, partial curve] |  |
| CC(/C=C/c1ccco1)=N/NC(=O)c1ccccc1Cl | active: 22.4 µM |  |
| O=C(COc1ccc(S(=O)(=O)N2CCOCC2)cc1)Nc1ccc2c(c1)OCCO2 |  | inactive: 0.986% |
| c1coc(CN=C2NC(=NCc3ccco3)c3ccccc32)c1 | inconclusive [inhibitor, single point] |  |
| Cc1nonc1C(=O)N/N=C/c1ccc([N+](=O)[O-])o1 | active: 44.7 µM |  |
| COc1cccc2c1Oc1ncccc1N(C(=O)CCC(=O)NCCC(C)C)C2 |  | inactive: 8.02% |
| CCCCC/C=C\C/C=C\C/C=C\C/C=C\CCCC(=O)Nc1ccc(O)cc1 | inconclusive [inhibitor, partial curve] |  |
| N/C(=N\OC(=O)CCc1ccccc1)c1ccccc1Cl |  | inactive: 4.77% |
| O=C(/C=C/c1ccco1)Nc1ccc(F)cc1 | active: 7.08 µM |  |
| Cc1onc(C(=O)NCCc2ccccc2)c1[N+](=O)[O-] | inconclusive [inhibitor, full curve, poor fit] |  |
| c1csc(C2C3=C(Nc4ncnn42)c2ccccc2OC3)c1 (centres undefined) | active: 44.7 µM |  |
| Cc1ccc(NC(=O)CN2C(=O)N/C(=C/c3cc(C)n(-c4ccc(C(=O)O)cc4)c3C)C2=O)cc1 | active: 44.7 µM |  |
| Cc1ccccc1NC(=S)NCc1ccco1 | inconclusive [inhibitor, single point] |  |
| N=C1CCC(=N)c2c1c(O)c1ccccc1c2O | active: 4.47 µM |  |
| CCSc1ccc(C(=O)Nc2cccc(C)n2)cc1[N+](=O)[O-] |  | inactive: 3.83% |
| O=C(CCc1nnc2ccc(NCc3ccco3)nn12)N1CCN(c2ccccc2F)CC1 | inconclusive [inhibitor, partial curve] |  |

| SMILES | Potency | activity change, negative = inhibition |
| --- | --- | --- |
| CCN(CC)CCCNC(=O)c1cc2c(-c3cccc(OC)c3)nn(C)c2s1 |  | inactive: 11.6% |
| COc1ccccc1N1CCN(c2cc(C)nc3nncn23)CC1 | inconclusive [inhibitor, single point] |  |
| COc1ccc(C)c2sc(N3CCN(C(=O)c4ccco4)CC3)nc12 |  | inactive: -33.6% |
| CCOc1ccc(N=c2scc(-c3ccccc3)n2CCO)cc1 |  | inactive: 10.6% |
| COc1ccc(C(=O)Oc2cc(-c3ccc(OC)c(OC)c3)cc(=O)c3c(C)oc(C)c23)cc1 | inconclusive [inhibitor, partial curve] |  |
| N#CC1(NC(=O)COc2ccccc2[N+](=O)[O-])CCCCC1 | inconclusive [inhibitor, partial curve] |  |
| CCCc1cc(=O)oc2cc(OC(=O)CN3C(=O)NC4(CCCC4)C3=O)ccc12 | inconclusive [inhibitor, partial curve] |  |
| COc1cccc(CN2CCN(CC#Cc3ccccc3)CC2CCO)c1 (centres undefined) | inconclusive [inhibitor, partial curve] |  |
| COC(=O)C(NNc1ccccc1)(NC(=O)c1cccc(F)c1)C(F)(F)F (centres undefined) | inconclusive [inhibitor, partial curve] |  |
| CCCCNc1cc(NC(C)=O)cc2cc(OC)c(OC)cc12 | inconclusive [inhibitor, full curve, poor fit] |  |
| COCCNCC(=O)Nc1ccc(OC(F)(F)F)cc1 |  | inactive: 5.38% |
| Cc1cccc(N(C(=O)Cn2nnc3ccccc32)C(C(=O)NCc2ccco2)c2ccncc2)c1C (centres undefined) | inconclusive [inhibitor, single point] |  |
| Cc1noc(C)c1CSc1nnc(-c2ccccc2)n1Cc1ccco1 | inconclusive [inhibitor, full curve] |  |
| CCC(CC)C(=O)Nc1cc(-c2nc3cccnc3s2)ccc1C |  | inactive: 24% |
| O=C(c1cccc(C(=O)N2CCN(c3ccccc3)CC2)c1)N1CCN(c2ccccc2)CC1 | inconclusive [inhibitor, partial curve] |  |
| CCCCCCCSc1nnc(N)s1 |  | inactive: 3.52% |
| O=C(NCc1ccco1)C1CCCN(S(=O)(=O)c2ccc(Br)cc2)C1 (centres undefined) | inconclusive [inhibitor, partial curve] |  |
| Cn1cccc1C(=O)OCC(=O)c1cc2ccccc2o1 |  | inactive: -3.67% |
| Cn1cccc1Cc1nnc(SCC(=O)NC2CCCC2)n1-c1ccc(F)cc1 | inconclusive [inhibitor, single point] |  |
| COc1ccc(Cl)cc1NC(=O)C(C)N(C)Cc1ccc(C(F)(F)F)cc1 (centres undefined) | inconclusive [inhibitor, single point] |  |
| NC(=O)C1CCN(C(=O)CCSc2ccccc2)CC1 | inconclusive [inhibitor, partial curve] |  |
| O=c1oc2ccc(C#CC3(O)CCCCC3)cc2cc1-n1cc(C2(O)CCCCC2)nn1 | inconclusive [inhibitor, partial curve] |  |
| CCn1ncc(/C=C/C(=O)NCc2cnn(C)c2C)c1C |  | inactive: 13.5% |
| CN(C)C(=O)c1ccccc1-c1ccccc1 | inconclusive [inhibitor, single point] |  |
